For three compounds, IC50 results are on record in article PMC4655192 (Neuropharmacology, 2015).

Like-named read-outs stand apart in the source and are kept apart here.

The subject of experiment [1] is MOR-KO striatal membranes.
Experiment [2] has as its system KOR-KO striatal membranes.

As for `NC(N)=Nc1ccc2[nH]c3c(c2c1)C[C@@]1(O)[C@H]2Cc4ccc(O)c5c4[C@@]1(CCN2CC1CC1)[C@H]3O5` [5′-GNTI, 5′-guanidinonaltrindole], the IC50 (in general, the point on the concentration scale where inhibition reaches its midpoint) in experiment [1] (vs 1 μM DynA(1-17)) amounted to 11.5 ± 0.8 nM; in experiment [1] (vs 1 μM DynB(1-9)), 4.7 ± 0.7 nM; in experiment [2] (vs 1 μM DynA(1-17)) it was 11.7 ± 4.5 nM; in experiment [2] (vs 1 μM DynB(1-9)), 10.9 ± 1.5 nM; with WT striatal membranes (vs 1 μM DynA(1-17)), 17.3 ± 2.1 nM; with WT striatal membranes (vs 1 μM DynB(1-9)) it was 11.4 ± 2 nM.
Take `Oc1ccc2c3c1O[C@H]1c4[nH]c5c(c4C[C@@]4(O)[C@@H](C2)N(CC2CC2)CC[C@]314)C[C@@]1(O)[C@H]2Cc3ccc(O)c4c3[C@@]1(CCN2CC1CC1)[C@H]5O4` [NorBNI, Norbinaltorphimine]: the IC50 was 19 ± 3 nM in experiment [1] (vs 1 μM DynA(1-17)); 9.1 ± 2.3 nM in experiment [1] (vs 1 μM DynB(1-9)); 66.7 ± 20.4 nM in experiment [2] (vs 1 μM DynA(1-17)); 43.1 ± 10.1 nM in experiment [2] (vs 1 μM DynB(1-9)); 46 ± 5.2 nM with WT striatal membranes (vs 1 μM DynA(1-17)); 28.1 ± 2.9 nM in the experiment with WT striatal membranes (vs 1 μM DynB(1-9)).
With `Oc1ccc2c3c1O[C@H]1c4[nH]c5ccccc5c4C[C@@]4(O)[C@@H](C2)N(CC2CC2)CC[C@]314` [naltrindole], the half-maximal inhibitory concentration (IC50) was 20 ± 7 nM in the experiment with WT striatal membranes (vs 1 μM DynA(1-17)) and 16 ± 9 nM in the experiment with WT striatal membranes (vs 1 μM DynB(1-9)).
